# From PubChem BioAssay AID596 (National Center for Advancing Translational Sciences (NCATS), 2007)
# The whole screen tested about 71,000 compounds, of which about 1,400 (2%) were called active. Inconclusive results, whose numbers are uncertain, are shown with a selection of clear calls. Calls follow the shape of the dose curve; as a rule, active = well fitted curve in the direction sought with a large enough effect; inconclusive = small, poorly fitted or top-dose-only effect; inactive = no such curve, though single readings can be large or run the other way. Potencies beside an inconclusive call are fits to weak or partial responses and may not hold up.
# Target: Microtubule-associated protein tau (Homo sapiens) (UniProt P10636)
# UniProt P10636, sequence (P10636 whole entry, looked up): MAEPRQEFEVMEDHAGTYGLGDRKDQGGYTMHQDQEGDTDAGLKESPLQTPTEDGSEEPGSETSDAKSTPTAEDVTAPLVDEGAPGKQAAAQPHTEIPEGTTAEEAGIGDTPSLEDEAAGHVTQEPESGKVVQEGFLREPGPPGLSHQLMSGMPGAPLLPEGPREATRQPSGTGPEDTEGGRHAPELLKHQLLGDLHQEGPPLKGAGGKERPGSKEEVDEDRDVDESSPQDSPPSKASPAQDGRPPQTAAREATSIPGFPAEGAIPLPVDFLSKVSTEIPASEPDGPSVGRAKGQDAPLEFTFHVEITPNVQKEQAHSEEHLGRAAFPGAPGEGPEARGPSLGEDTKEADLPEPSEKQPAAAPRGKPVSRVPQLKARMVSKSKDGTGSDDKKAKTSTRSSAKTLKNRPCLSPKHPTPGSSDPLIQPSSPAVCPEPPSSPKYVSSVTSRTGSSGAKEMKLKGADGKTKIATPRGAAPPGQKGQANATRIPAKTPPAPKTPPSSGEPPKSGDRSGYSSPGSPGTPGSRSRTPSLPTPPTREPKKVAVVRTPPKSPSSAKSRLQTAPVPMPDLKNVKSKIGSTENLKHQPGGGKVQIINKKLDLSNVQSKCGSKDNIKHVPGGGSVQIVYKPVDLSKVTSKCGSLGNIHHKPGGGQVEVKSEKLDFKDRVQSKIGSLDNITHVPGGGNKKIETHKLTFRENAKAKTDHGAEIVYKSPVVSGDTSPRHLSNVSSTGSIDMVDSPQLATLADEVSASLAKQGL
# Assay: qHTS Assay for Tau Filament Binding;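 also: actives lower thioflavin S fluorescence by blocking filaments or displacing dye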
# Conditions: recombinant tau filaments, thioflavin S fluorescence, 15 h, filaments grown with octadecylsulfate alongside compound; series mostly up to 57.1 µM
# Summary of the method: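 Tau 2 uM in ThS buffer dispensed; compound added; 60 uM ODS added (finals 1 uM tau, 30 uM ODS); 15 h 37 C; fluor ex450/em510.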
# % is scaled to controls: 0 for no effect and ±100 for the full control effect; potency is read from the fitted curve at half-maximal effect.
SMILES,Potency,"activity change, negative = inhibition"
COc1cc(CNC(=O)CCCC/C=C\C(C)C)ccc1O,inconclusive: 39.8 µM [decreasing],–
CCOC(=O)c1cc2c(=O)n3ccccc3nc2n(Cc2ccc(Cl)cc2)c1=N,active: 0.501 µM,–
CN(c1ccc(O)cc1)c1nc(-c2ccccc2)cs1,inconclusive: 15.8 µM [decreasing],–
CNCCC=C1c2ccccc2CCc2ccccc21,inconclusive: 12.6 µM [decreasing],–
CO[C@H]1C=CO[C@]2(C)Oc3c(C)c(O)c4c(O)c(c5c(c4c3C2=O)NC2(CCN(CC(C)C)CC2)N=5)=NC(=O)C(C)=CC=C[C@@H](C)[C@@H](O)[C@@H](C)[C@@H](O)[C@@H](C)[C@@H](OC(C)=O)[C@@H]1C,active: 1.58 µM,–
COc1cc(Cn2c(-c3nonc3N)nc3ccccc32)ccc1C,inactive,–
COc1ccc(N(C)C(=O)c2ccc3snnc3c2)cc1,inconclusive: 20 µM [decreasing],–
CCn1c(=O)[nH]c2ccccc21,inconclusive: 39.8 µM [decreasing],–
COCCNC(=O)Nc1ccc2c(c1)N(C)C(=O)CS2,inconclusive: 39.8 µM [decreasing],–
O=S(=O)(Nc1ccc2c(c1)OCO2)c1ccc(Br)s1,active: 20 µM,–
O=C(O)C1=CCNCC1,inconclusive: 39.8 µM [decreasing],–
CNc1ncnc2c1ncn2[C@H]1C[C@@H](OP(=O)(O)O)[C@H](COP(=O)(O)O)O1,inactive,–
CC1CCC(C(C)C)C(OC(=O)CSc2n[nH]c(=O)[nH]c2=O)C1 (stereo not drawn),inactive,–
CCn1c(SCC(=O)c2ccc(Cl)s2)nnc1-c1cccs1,inconclusive: 31.6 µM [decreasing],–
COc1cccc2c1C(=O)c1c(O)c3c(c(O)c1C2=O)C[C@](O)(C(C)=O)C[C@H]3O[C@@H]1C[C@H](N)[C@H](O)[C@H](C)O1,active: 1.58 µM,–
C[C@](N)(C(=O)O)c1ccc(-c2nn[nH]n2)cc1,inconclusive: 39.8 µM [decreasing],–
COc1ccc2oc(-c3ccc(O)cc3)cc(=O)c2c1,inconclusive: 39.8 µM [decreasing],–
COc1cc(/C=C\C(=O)N2CCCCC2=O)cc(OC)c1OC,inconclusive: 39.8 µM [decreasing],–
CCOc1ccc(-c2n[nH]c(C)c2Oc2ccc(OC)cc2)c(O)c1,inconclusive: 10 µM [decreasing],–
O=C(c1ccc2nc(-c3ccco3)c(-c3ccco3)nc2c1)N1CCN(c2ccccc2)CC1,active: 1 µM,–
O=c1n(CC2CO2)c(=O)n(CC2CO2)c(=O)n1CC1CO1 (stereo not drawn),inactive,–
COc1ccccc1NC(=O)CN1CCC(n2nnc3cc(F)ccc32)CC1,inactive,–
COc1ccc(-n2c(=O)c(-c3ccccc3)nc3cnc(N4CCN(C)CC4)nc32)cc1,inconclusive: 15.8 µM [decreasing],–
O=C(COc1ccccc1)N(Cc1ccco1)c1ccc(O)cc1,inactive,–
CCC(=O)N[C@@H]1CCc2cccc(OC)c2C1,inconclusive: 39.8 µM [decreasing],–
CCOC(=O)CCc1nc2ccccc2[nH]1,inactive,–
FC(F)(F)c1cc(CO[C@H]2CCCN[C@H]2c2ccccc2)cc(C(F)(F)F)c1,inconclusive: 39.8 µM [decreasing],–

SMILES,Potency,"activity change, negative = inhibition"
NC(N)=NC[C@H](N)C(=O)O,–,inactive: -10.2% [at 11.4 µM]
O=C(O)C/C=C\CC(=O)O,–,inactive: 3.8% [at 11.4 µM]
CCN(CC)c1ccc(NC(=O)c2cncc(Br)c2)cc1,active: 20 µM,–
CN=C(N)NCCC[C@H](N)C(=O)O,inconclusive: 39.8 µM [decreasing],–
COc1ccc2ccccc2c1C1CC(=O)N2CN(C)CSC2=C1C#N (stereo not drawn),inconclusive: 39.8 µM [decreasing],–
O=c1c2ccccc2oc2cc(O)c([C@@H]3COC[C@@H](CO)[C@@H](O)[C@@H](O)[C@H]3O)c(O)c12,inconclusive: 39.8 µM [decreasing],–
CCOC(=O)Cn1nnc(-c2ccc(OCC(C)C)cc2)n1,inactive,–
Cc1cc(C)n(-c2nc3ccccc3nc2N2CCCCCC2)n1,inconclusive: 25.1 µM [decreasing],–
COc1cccc(CNC(=O)C2CCN(c3cnccn3)CC2)c1,inactive,–
O=C(CSc1nnc(-c2cccs2)n1Cc1ccco1)Nc1ccc2c(c1)OCO2,inactive,–
Nc1ncnc2c1ncn2CCCCC(=O)O,–,inactive: -3.7% [at 11.4 µM]
CC1=CC(=O)C2=C(C)CC[C@@H]3[C@H](OC(=O)[C@H]3C)[C@H]12,inconclusive: 39.8 µM [decreasing],–
Fc1ccc(-c2nc3nc4ccccc4nc3n2Cc2ccco2)cc1,active: 15.8 µM,–
CCCCCCCCCC(=O)O[C@H](CC(=O)O)C[N+](C)(C)C,inconclusive: 39.8 µM [decreasing],–
COc1cccc(-c2nn(C)c3sc(C(=O)NCc4ccccn4)cc23)c1,inactive,–
C=C(C)COc1ccc(-c2[nH]ncc2-c2ccccc2OC)c(O)c1,inconclusive: 25.1 µM [decreasing],–
O=C(O)CN1C(=O)c2cccc3cccc(c23)C1=O,inconclusive: 39.8 µM [decreasing],–
Oc1ccc(C=Nc2cccc3ncccc23)c(O)c1,inactive,–
Cc1cc(C(=O)CSc2n[nH]c(N)n2)c(C)n1-c1cc(F)ccc1F,inconclusive: 31.6 µM [decreasing],–
CN1/C(=C\P(=O)(N(C)C)N(C)C)C(C)(C)c2ccccc21,active: 10 µM,–
COc1c(F)c(F)c(C(=O)Nc2ccc3oc(-c4ccncc4)nc3c2)c(F)c1F,inconclusive: 31.6 µM [decreasing],–
CS(=O)(=O)c1ccc2nc(NC(=O)CCC(=O)c3cccs3)sc2c1,inconclusive: 39.8 µM [decreasing],–
c1coc(-c2nc3ccccc3nc2-c2ccco2)c1,active: 12.6 µM,–
COc1cccc(Nc2ncc3ncc(=O)n(C4CC4)c3n2)c1,active: 12.6 µM,–
Clc1ccc(-c2nnc(-c3ccc(Br)o3)o2)c(Cl)c1,inactive,–
COc1ccccc1CCn1c(=O)c(-c2cccc(Cl)c2)nc2cncnc21,active: 12.6 µM,–
